Literature values, collected in US20060229299A1, “5ht2c Receptor antagonists in the treatment of schizophrenia” (priority 2003, published 2006).

Experiments:
5-HT2C receptor = molecular target: T1, 5-HT2C receptor (Sus scrofa, UniProt K7GSR7); conditions: pig; cited from earlier work
T1 sequence (K7GSR7 1-457): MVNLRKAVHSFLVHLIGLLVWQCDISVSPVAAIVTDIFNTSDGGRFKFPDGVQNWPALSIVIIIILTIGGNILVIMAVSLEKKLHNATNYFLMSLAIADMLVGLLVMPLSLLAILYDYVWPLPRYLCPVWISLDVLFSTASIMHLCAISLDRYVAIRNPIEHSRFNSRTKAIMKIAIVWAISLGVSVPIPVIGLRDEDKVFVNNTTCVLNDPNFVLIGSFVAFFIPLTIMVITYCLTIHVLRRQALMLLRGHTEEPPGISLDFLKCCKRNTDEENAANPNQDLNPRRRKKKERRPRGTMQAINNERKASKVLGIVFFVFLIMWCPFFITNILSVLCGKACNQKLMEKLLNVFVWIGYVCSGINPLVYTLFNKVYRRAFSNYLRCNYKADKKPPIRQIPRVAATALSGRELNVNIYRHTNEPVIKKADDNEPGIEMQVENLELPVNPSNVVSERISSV

5-HT7 receptor = 5-HT7 receptor (Mus musculus, UniProt P32304); conditions: cited from earlier work
5-HT3 receptor = molecular target: T2, 5-HT3 receptor (Mus musculus, UniProt P23979); conditions: cited from earlier work
T2 sequence (P23979 24-489): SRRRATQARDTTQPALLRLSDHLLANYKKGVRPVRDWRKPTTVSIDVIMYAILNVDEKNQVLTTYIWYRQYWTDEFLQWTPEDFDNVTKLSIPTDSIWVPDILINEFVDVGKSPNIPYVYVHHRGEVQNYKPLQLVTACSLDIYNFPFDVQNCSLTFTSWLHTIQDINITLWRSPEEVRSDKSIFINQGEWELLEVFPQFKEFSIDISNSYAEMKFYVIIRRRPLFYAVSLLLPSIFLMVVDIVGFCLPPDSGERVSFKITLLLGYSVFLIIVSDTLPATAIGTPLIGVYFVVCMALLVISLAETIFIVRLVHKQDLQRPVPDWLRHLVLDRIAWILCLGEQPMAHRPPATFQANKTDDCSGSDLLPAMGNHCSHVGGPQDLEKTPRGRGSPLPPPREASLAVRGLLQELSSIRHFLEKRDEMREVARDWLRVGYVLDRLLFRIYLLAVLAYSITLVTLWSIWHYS

D4 dopamine receptor = molecular target: T3, D4 dopamine receptor (Rattus norvegicus, UniProt P30729); conditions: cited from earlier work
T3 sequence (P30729 1-387): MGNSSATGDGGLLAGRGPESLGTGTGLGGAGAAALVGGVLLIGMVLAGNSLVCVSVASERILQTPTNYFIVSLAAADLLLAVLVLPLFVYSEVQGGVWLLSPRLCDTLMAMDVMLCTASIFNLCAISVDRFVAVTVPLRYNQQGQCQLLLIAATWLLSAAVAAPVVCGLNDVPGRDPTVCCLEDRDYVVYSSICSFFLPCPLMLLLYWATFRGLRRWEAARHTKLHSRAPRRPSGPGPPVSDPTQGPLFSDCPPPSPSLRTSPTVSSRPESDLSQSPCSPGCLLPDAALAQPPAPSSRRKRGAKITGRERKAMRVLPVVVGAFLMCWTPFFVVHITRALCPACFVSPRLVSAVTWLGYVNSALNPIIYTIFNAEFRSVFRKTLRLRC

5-HT2A receptor = 5-HT2A receptor (Homo sapiens, UniProt P28223); conditions: cited from earlier work
D3 dopamine receptor = D3 dopamine receptor (Homo sapiens, UniProt P35462); conditions: cited from earlier work
sigma, σ receptor = conditions: guinea-pig; cited from earlier work
α1-adrenoceptor [1] = conditions: species for α1 not given; cited from earlier work
α1-adrenoceptor [2] = conditions: human, expressed as KD; cited from earlier work

Sequence of 5-HT7 receptor (P32304 whole entry): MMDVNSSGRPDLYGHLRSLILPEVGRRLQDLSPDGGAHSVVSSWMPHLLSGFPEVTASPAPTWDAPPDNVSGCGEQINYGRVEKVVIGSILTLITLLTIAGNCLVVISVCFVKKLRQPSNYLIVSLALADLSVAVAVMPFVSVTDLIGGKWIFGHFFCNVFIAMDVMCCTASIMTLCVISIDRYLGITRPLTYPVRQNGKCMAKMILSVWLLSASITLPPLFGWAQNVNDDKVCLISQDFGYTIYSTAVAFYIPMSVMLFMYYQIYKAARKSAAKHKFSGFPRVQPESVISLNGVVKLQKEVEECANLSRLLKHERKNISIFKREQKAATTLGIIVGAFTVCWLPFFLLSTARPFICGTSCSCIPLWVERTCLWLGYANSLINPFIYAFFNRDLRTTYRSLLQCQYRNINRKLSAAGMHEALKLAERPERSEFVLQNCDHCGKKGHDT
Sequence of D3 dopamine receptor (P35462 whole entry): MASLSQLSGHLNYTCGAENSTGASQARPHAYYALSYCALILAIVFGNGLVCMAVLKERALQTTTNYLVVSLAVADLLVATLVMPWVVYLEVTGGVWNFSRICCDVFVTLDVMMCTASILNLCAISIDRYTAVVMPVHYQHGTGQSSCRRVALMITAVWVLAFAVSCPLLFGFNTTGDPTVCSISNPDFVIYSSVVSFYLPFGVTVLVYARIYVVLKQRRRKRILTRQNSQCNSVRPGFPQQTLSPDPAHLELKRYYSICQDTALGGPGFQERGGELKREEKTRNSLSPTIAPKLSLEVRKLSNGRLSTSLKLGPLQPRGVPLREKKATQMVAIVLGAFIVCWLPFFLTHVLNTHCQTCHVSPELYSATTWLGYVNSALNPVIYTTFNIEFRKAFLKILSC
Sequence of 5-HT2A receptor (P28223 whole entry): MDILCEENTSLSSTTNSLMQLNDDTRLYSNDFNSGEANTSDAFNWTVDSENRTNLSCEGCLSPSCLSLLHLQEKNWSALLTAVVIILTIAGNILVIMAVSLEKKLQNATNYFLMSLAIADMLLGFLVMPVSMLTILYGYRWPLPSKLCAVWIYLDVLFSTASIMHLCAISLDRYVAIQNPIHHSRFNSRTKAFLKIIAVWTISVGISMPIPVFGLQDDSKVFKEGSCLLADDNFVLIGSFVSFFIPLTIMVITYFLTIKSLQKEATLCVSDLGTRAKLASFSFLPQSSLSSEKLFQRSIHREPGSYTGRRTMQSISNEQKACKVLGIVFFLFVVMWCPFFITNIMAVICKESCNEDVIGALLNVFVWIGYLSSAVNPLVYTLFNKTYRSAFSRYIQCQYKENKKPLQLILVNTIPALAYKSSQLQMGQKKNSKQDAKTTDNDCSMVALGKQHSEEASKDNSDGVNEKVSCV

CN1CCN(C2=Nc3cc(Cl)ccc3Nc3ccccc32)CC1 [Clozapine]
5-HT2C affinity value (−logKi) (5-HT2C receptor): 7.9^6

O=C(CCCN1CCC(O)(c2ccc(Cl)cc2)CC1)c1ccc(F)cc1 [Haloperidol]
5-HT7 affinity value (−logKi) (5-HT7 receptor): 6.4^6

Cc1cc2c(s1)Nc1ccccc1N=C2N1CCN(C)CC1 [Olanzapine]
5-HT3 affinity value (−logKi) (5-HT3 receptor): 7.1^6

CSc1ccc2c(c1)N(CCC1CCCCN1C)c1ccccc1S2 (stereo not shown) [Thioridazine]
D4 affinity value (−logKi) (D4 dopamine receptor): 8.4^4

COc1cc(C(C)=O)ccc1OCCCN1CCC(c2noc3cc(F)ccc23)CC1 [Iloperidone]
5-HT2A affinity value (−logKi) (5-HT2A receptor): 8.3^10

OCCOCCN1CCN(C2=Nc3ccccc3Sc3ccccc32)CC1 [Seroquel]
5-HT7 affinity value (−logKi) (5-HT7 receptor): 6.5^6 | D3 affinity value (−logKi) (D3 dopamine receptor): 6.5^6 | sigma affinity value (−logKi) (sigma, σ receptor): <5.3^6 | α1 affinity value (−logKi) (α1-adrenoceptor [1]): 7.2^6 | D4 affinity value (−logKi) (D4 dopamine receptor): 5.9^4

OCCN1CCN(CCCN2c3ccccc3Sc3ccc(C(F)(F)F)cc32)CC1 [Fluphenazine]
α1 affinity value (−log KD) (α1-adrenoceptor [2]): 8.0^16 | D4 affinity value (−logKi) (D4 dopamine receptor): 8.0^4

Cc1nc2n(c(=O)c1CCN1CCC(c3noc4cc(F)ccc34)CC1)CCCC2 [Risperidone]
D4 affinity value (−logKi) (D4 dopamine receptor): 7.8^4
